According to article PMC11595209:
No constants are given. Whether binding was seen depends on the method and setting. Binding seen in cells or lysates may run through a third protein. Some results given as binding are weak or reduced against the parent protein; the word gives no strength. Sequences can lack the tags named with a protein.

The chains behind the UniProt entries cited, without tags or fusion partners.
UniProt P03545: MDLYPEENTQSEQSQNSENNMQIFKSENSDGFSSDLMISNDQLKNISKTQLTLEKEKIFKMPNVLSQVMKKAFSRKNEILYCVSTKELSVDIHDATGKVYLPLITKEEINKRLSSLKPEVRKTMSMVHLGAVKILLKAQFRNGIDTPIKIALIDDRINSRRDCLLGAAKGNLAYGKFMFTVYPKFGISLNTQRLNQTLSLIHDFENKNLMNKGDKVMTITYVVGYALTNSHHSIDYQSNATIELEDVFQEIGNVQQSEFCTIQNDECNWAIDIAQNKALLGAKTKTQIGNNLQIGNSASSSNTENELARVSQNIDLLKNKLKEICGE
UniProt Q00271: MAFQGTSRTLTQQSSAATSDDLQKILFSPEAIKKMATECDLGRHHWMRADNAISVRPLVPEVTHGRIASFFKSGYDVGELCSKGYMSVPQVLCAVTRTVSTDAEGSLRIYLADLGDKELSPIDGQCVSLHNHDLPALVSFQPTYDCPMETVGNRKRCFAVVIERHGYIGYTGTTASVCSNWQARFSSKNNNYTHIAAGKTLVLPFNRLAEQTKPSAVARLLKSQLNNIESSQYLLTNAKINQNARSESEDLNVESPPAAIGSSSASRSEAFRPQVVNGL

What was measured:
Assay in all cases: split reporter; BiFC with NtGFP and CtGFP fragments of EGFP fused at the N- or C-terminus of each protein; co-agroinfiltration of N. benthamiana leaves (OD600 0.4, mixed in equal proportions); confocal microscopy
[1] = target: cauliflower mosaic virus (CaMV) movement protein, BiFC fusion (cauliflower mosaic virus) (UniProt P03545)
[2] = target: cucumber mosaic virus (CMV) movement protein, BiFC fusion (cucumber mosaic virus) (UniProt Q00271)
[3] = target: T1, N. tabacum peroxidase, BiFC fusion (N. tabacum)
T1 sequence: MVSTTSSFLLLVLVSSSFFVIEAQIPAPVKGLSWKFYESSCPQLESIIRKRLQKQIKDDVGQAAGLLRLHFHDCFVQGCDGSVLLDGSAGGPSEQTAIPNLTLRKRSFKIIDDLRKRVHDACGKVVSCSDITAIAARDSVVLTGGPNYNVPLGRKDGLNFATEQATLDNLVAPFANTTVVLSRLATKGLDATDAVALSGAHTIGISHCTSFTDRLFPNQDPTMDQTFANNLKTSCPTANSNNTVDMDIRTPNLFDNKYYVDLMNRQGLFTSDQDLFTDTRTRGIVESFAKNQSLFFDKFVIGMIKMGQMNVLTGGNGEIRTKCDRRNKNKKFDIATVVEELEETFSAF

B1: N. tabacum 14-3-3A protein, BiFC fusion (protein, UniProt A0ABD8EQ38 1-255)
chain: MASPREENVYLAKLAEQAERYEEMVEFMEKVVGAGDDELTVEERNLLSVAYKNVIGARRASWRIISSIEQKEESRGNEDHVASIKTYRSKIESELTSICNGILKLLDSKLIGTAATGDSKVFYLKMKGDYYRYLAEFKTGAERKEAAENTLSAYKSAQDIANVELAPTHPIRLGLALNFSVFYYEILNSPDRACNLAKQAFDEAIAELDTLGEESYKDSTLIMQLLRDNLTLWTSDMQDDGTDEIKEPSKAEEQQ
binding [1]: no binding | binding [2]: binds | binding [3]: binds
